Source: PubChem BioAssay AID1468 (National Center for Advancing Translational Sciences (NCATS), 2008)
Values joined by “and” are separate entries in the source; they are usually repeats but may differ in a detail not shown here. Equal values may be shown once. Among all 280,000 compounds or so, about 1,100 (0.39%) were called active. Inconclusive means that the source gave no clear call. Such entries were picked first, then a sample of the others. Calls follow the shape of the dose curve; as a rule, active = well fitted inhibition curve with a large enough effect; inconclusive = small, poorly fitted or top-dose-only effect, or effect the other way; inactive = flat fitted curve, though single readings scatter. A potency beside an inconclusive call is a rough fit, not a confirmed value.

What follows are molecules tested against Microtubule-associated protein tau (Homo sapiens) (UniProt P10636) (assay: qHTS for Inhibitors of Tau Fibril Formation, Fluorescence Polarization). Conditions: K18 P301L tau heparin fibrillization, Alexa594 FP, 6 h; series mostly up to 57.7 µM; activity, negative = inhibition: at the top concentration.
Outline: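 Human K18 P301L fragment (15 uM unlabeled plus 0.24 uM Alexa 594-labeled) in 100 mM sodium acetate pH 7 with compound, aggregation induced by 20 uM heparin for 6 hr at 37 C. ThT (30 uM) added for 1 hr, then Alexa 594 FP read.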
% is scaled to controls: 0 for no effect and ±100 for the full control effect; potency is read from the fitted curve at half-maximal effect; tags tell the direction and shape of the fitted curve.
Also: nearly all actives have a fitted effect of over 55% in size.

UniProt P10636, sequence (P10636 whole entry, looked up, the tested form may be a part): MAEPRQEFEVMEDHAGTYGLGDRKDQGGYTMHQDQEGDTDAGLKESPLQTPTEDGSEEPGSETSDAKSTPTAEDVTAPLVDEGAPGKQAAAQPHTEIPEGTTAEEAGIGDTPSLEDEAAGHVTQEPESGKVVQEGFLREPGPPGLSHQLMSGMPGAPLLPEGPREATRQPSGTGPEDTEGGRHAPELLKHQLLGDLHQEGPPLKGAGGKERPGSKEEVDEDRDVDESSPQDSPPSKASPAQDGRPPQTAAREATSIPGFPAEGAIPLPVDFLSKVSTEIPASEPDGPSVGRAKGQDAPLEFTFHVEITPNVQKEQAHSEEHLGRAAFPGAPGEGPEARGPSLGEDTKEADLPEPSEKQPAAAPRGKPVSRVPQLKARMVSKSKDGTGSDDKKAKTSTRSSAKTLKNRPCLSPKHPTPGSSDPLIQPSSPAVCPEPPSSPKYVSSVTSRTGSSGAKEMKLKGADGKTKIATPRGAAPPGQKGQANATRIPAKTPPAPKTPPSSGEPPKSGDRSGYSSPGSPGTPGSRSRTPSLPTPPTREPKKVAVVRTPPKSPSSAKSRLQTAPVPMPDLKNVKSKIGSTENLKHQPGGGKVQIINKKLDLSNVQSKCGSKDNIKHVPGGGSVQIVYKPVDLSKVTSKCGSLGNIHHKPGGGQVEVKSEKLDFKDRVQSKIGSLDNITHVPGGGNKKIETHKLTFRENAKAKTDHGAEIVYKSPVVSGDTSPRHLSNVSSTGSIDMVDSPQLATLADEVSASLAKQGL

Potency, inconclusive:
CCN(CC)S(=O)(=O)c1ccc(NC(=O)Cn2ncc3c([nH]c4ccccc43)c2=O)cc1 31.6 µM [inhibitor, single point]
Clc1nc2ccccc2cc1/C=N/Nc1nc2ccccc2[nH]1 22.4 µM [activator, partial curve]
Clc1ccccc1Sc1ccc(-c2ccccn2)s1 28.2 µM [inhibitor, partial curve, poor fit]
CCN(CC)c1ccc(NC(=O)c2c(C)nn(-c3ccc(F)cc3)c2-n2cccc2)c(C)c1 8.91 µM [activator, single point]
Cc1csc(Sc2ccc(C(=O)OCC(=O)Nc3ccc(OC(F)(F)F)cc3)cc2[N+](=O)[O-])n1 3.16 µM [inhibitor, partial curve, poor fit]
CCc1nn2c(NCCOC)cc(C)nc2c1-c1ccc(F)cc1 17.8 µM [activator, partial curve]
O=C(Nc1ccc(Cl)cc1)c1cnn2c1NC(c1ccccc1)=CC2c1ccccc1 (stereo not drawn) 25.1 µM [inhibitor, partial curve]
Cc1ccc(C2(C)NC(=O)N(CC(=O)Nc3ccc4[nH]c(=O)[nH]c4c3)C2=O)cc1 (stereo not drawn) 15.8 µM [activator, partial curve, poor fit]
O=C1C(N2CCOCC2)=C(n2nnc3ccccc32)C(=O)c2ccccc21 31.6 µM [inhibitor, single point]
Cc1ccc(S(=O)(=O)NC2OC(=O)C(Cl)=C2Cl)cc1 (stereo not drawn) 35.5 µM [inhibitor, single point]
O=C(Cc1csc2ccccc12)NCc1cccc(Br)c1 31.6 µM [inhibitor, single point]
COc1cc(Cn2c(N)c(C#N)c3nc4ccccc4nc32)cc(OC)c1 17.8 µM [inhibitor, partial curve, poor fit]
CCC(=O)N1CCc2cc(Br)cc(S(=O)(=O)CCC(=O)Nc3cccc(CC)c3)c21 20 µM [inhibitor, partial curve]
O=C(COC(=O)C12CC3CC(CC(C3)C1)C2)Nc1ccc(OC(F)F)cc1 31.6 µM [inhibitor, partial curve]
Cc1nonc1NC(=O)CSc1nc(CCC2CCCC2)nc2ccccc12 15.8 µM [inhibitor, partial curve, poor fit]
CC(C)(CNC(=S)NCCc1ccccc1)CNC(=S)NCCc1ccccc1 31.6 µM [inhibitor, partial curve]
CCOc1ccc2c(c1)sc(=NC(=O)C1CC1)n2C 14.1 µM [inhibitor, partial curve, poor fit]
Cn1c(N)c(C(=O)COC(=O)c2cc(C3CC3)nc3ccccc23)c(=O)n(C)c1=O 28.2 µM [inhibitor, single point] and 28.2 µM [inhibitor, partial curve]
CC1CCN(C(=O)Nc2ccc3nsnc3c2)CC1 39.8 µM [inhibitor, single point]
Cc1cccc(OCC(=O)N/N=C\c2cc3c(cc2[N+](=O)[O-])OCO3)c1C 25.1 µM [activator, single point]
CC(=O)CC1(C)OC(N)=C(C#N)C1(C#N)C#N (stereo not drawn) 28.2 µM [inhibitor, single point]
O=C(NC(=S)Nc1cccc(NC(=O)c2ccccc2Cl)c1)c1cccs1 31.6 µM [inhibitor, partial curve]
CCOC(=O)c1c(N)nn(C(=O)C(C)C)c1-c1ccccc1 1.26 µM [inhibitor, single point]
CC(=O)N[C@@H](C(=O)O)C(C)(C)SN=O 25.1 µM [inhibitor, partial curve, poor fit]
COc1ccc(OC)c(Nc2ccc(Nc3cc(OC)ccc3OC)nn2)c1 5.01 µM [activator, partial curve, poor fit]
COc1ccc(-n2nc(C(=O)NCCc3ccc(Cl)cc3)c3c4ccccc4n(C)c3c2=O)cc1Cl 39.8 µM [inhibitor, single point]
CCCCCCN1C=CC=C/C1=C\C=C(C#N)C#N 39.8 µM [activator, single point]
COc1ccc(N2CCN(C(=O)Cc3coc4ccc(C)cc34)CC2)cc1 11.2 µM [activator, partial curve]
O=S(=O)(Nc1cccc(Cl)c1)c1ccc2[nH]c3c(c2c1)CCCCCC3 39.8 µM [inhibitor, single point]

Potency, active:
O=C(Cn1c(=O)n(Cc2ccco2)c(=O)c2ccc(C(=O)NC3CCCC3)cc21)Nc1ccc(F)cc1 15.8 µM

activity, negative = inhibition, inactive:
COc1cc(OC)cc(C(=O)NC(=S)Nc2ccc(Cl)c(C(=O)O)c2)c1 -2.94%
CC12CCC(C(=O)Nc3ccncc3)(CC1O)C2(C)C (stereo not drawn) -5.2%
Cc1ccc(C(=O)ONc2ccc(N=O)cc2)cc1 -2.65%
COc1cccc(N=Nc2c(N)[nH][nH]c2=O)c1 2.29%
O=C(Nc1cccc(C(F)(F)F)c1)C1CCN(c2nnc(-n3cccc3)s2)CC1 -18.1%
CCOC(=O)c1c(NC(=O)COc2ncnc3ccccc23)sc(C)c1C 2.68%
Cc1ccc(CN2CCSc3ccc(C(=O)Nc4ccc(Cl)cc4)cc32)cc1 10.2%
COc1ccc(-c2noc(CN(C)C(=O)Nc3ccccc3)n2)cc1 -3.65%
O=C(CNC(=O)c1ccco1)OCc1ccc(C(=O)c2ccccc2)cc1 -3.82%
COc1cc(/C=C2/NC(=O)NC2=O)cc(Br)c1OCc1ccc(C(=O)O)cc1 4.41%
CC(=O)c1ccccc1NC(=O)COC(=O)c1ccccc1NC(=O)c1ccccc1 4.61%
CCc1noc(-c2ccc(NC(C)c3ccccc3)c([N+](=O)[O-])c2)n1 (stereo not drawn) -8.37%
COc1ccc(C(=O)N(C)c2c(C)n(C)n(-c3ccccc3)c2=O)cc1OC 4.49%
